Reference: the supplement of paper PMC6206098
± gives the uncertainty stated by the source. The sequences are guide strands of siRNAs; only the seed at positions 2 to 7 varies.

Assays:
3LL = assay: cell viability relative to siNT1 control; higher = less toxic; conditions: concentration: 10 nM; 96 h; Mus musculus;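 also: Luminescence-based viability of cells reverse transfected in 384-well plates with lipid-complexed siRNAs built on a non-toxic 19mer backbone whose passenger strand carries 2′-O-methyl groups at positions 1 and 2, triplicates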
Protocol: (§1)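 Arrayed screen of 4096 siRNA duplexes, each carrying one of all possible 6mer seeds at guide-strand positions 2-7 in a fixed neutral 19mer scaffold (constant flanks: U at position 1, then ACAUGUAAACCA, plus a 3' AA overhang). The passenger strand is 2'-O-methylated at positions 1-2 so only the guide strand loads into RISC. Duplexes were reverse-transfected at 10 nM with RNAiMAX in triplicate in 384-well plates; viability was read by CellTiter-Glo ATP content 96 h after transfection. Values are % viability normalised to lipid-only wells (HeyA8, H460, M565) or to siNT1 (3LL).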

H460 = assay: cell viability relative to lipid-only control; HeyA8 human ovarian and H460 human lung cancer; M565 mouse liver and 3LL mouse lung cancer; siNT1 is a non-toxic control siRNA; higher = less toxic; conditions: concentration: 10 nM; 96 h; Homo sapiens
Protocol: as §1

HeyA8 = assay: as above; conditions: concentration: 10 nM; 96 h; Homo sapiens
Protocol: as §1

M565 = assay: as above; conditions: concentration: 10 nM; 96 h; Mus musculus
Protocol: as §1
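For cell viability relative to lipid-only control in this document: reverse lipid transfection in 384-well plates, in triplicate, of duplexes on a non-toxic 19mer backbone with passenger strand 2′-O-methylated at positions 1 and 2, luminescence viability read-out.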

Sequence | cell viability (3LL) [%] | cell viability (H460) [%] | cell viability (HeyA8) [%] | cell viability (M565) [%]
UACAUGCACAUGUAAACCAAA | 34.3 ± 1.8 | 26 ± 2.4 | 8.38 ± 0.88 | 19.6 ± 2.7
UACAUGGACAUGUAAACCAAA | 45.2 ± 1.8 | 45.2 ± 2.2 | 62.5 ± 5.7 | 35.2 ± 2.9
UACAUGUACAUGUAAACCAAA | 83.3 ± 9.1 | 69.6 ± 14 | 27 ± 3.1 | 32.3 ± 4.8
UACAUUAACAUGUAAACCAAA | 91.3 ± 3.4 | 71.2 ± 14 | 97.1 ± 8.9 | 83 ± 21
UACAUUCACAUGUAAACCAAA | 94.8 ± 7.6 | 74.3 ± 2.6 | 57.6 ± 3.5 | 116 ± 3.5
UACAUUGACAUGUAAACCAAA | 98.2 ± 19 | 74.4 ± 6.7 | 77.2 ± 12 | 70.3 ± 10
UACAUUUACAUGUAAACCAAA | 92 ± 8.8 | 68.8 ± 4.8 | 38.6 ± 2.9 | 70.4 ± 10
UACCAAAACAUGUAAACCAAA | 91.1 ± 4.9 | 52.9 ± 6.4 | 88.3 ± 6.3 | 68.6 ± 5.2
UACCAACACAUGUAAACCAAA | 66.1 ± 8.3 | 55.7 ± 2.9 | 78.4 ± 9.2 | 21.7 ± 3.3
UACCAAGACAUGUAAACCAAA | 85.2 ± 2.7 | 43.9 ± 5 | 81.3 ± 8.6 | 48.1 ± 8.5
UACCAAUACAUGUAAACCAAA | 85.4 ± 7.2 | 62.5 ± 8 | 84.4 ± 13 | 52.5 ± 15
UACCACAACAUGUAAACCAAA | 81.8 ± 5.5 | 38.6 ± 6.3 | 88.2 ± 2.8 | 29 ± 2.9
UACCACCACAUGUAAACCAAA | 17.8 ± 7.3 | 34.6 ± 4.1 | 29.8 ± 10 | 7.05 ± 0.82
UACCACGACAUGUAAACCAAA | 76.1 ± 5.2 | 49.8 ± 9.5 | 91.2 ± 2.1 | 35.4 ± 5.9
UACCACUACAUGUAAACCAAA | 66.5 ± 15 | 40.8 ± 8 | 52.7 ± 4 | 7.26 ± 1.7
UACCAGAACAUGUAAACCAAA | 78.4 ± 2.5 | 78.7 ± 6.3 | 83.6 ± 5.9 | 34.9 ± 8.5
UACCAGCACAUGUAAACCAAA | 8.04 ± 1.6 | 32.9 ± 6.2 | 20.6 ± 1.4 | 4.88 ± 2.2
UACCAGGACAUGUAAACCAAA | 75.7 ± 3 | 59.7 ± 2.3 | 63.4 ± 9.5 | 47.5 ± 9.4
UACCAGUACAUGUAAACCAAA | 51 ± 9 | 56.5 ± 4.1 | 10.5 ± 2.6 | 13.9 ± 2

Sequence | cell viability (3LL) [%] | cell viability (H460) [%] | cell viability (HeyA8) [%] | cell viability (M565) [%]
UACCAUAACAUGUAAACCAAA | 95.4 ± 13 | 58.1 ± 6.3 | 101 ± 10 | 84 ± 20
UACCAUCACAUGUAAACCAAA | 33.3 ± 5.2 | 48.9 ± 3.9 | 45.4 ± 0.94 | 16.7 ± 6.3
UACCAUGACAUGUAAACCAAA | 81.4 ± 5.4 | 52.9 ± 12 | 81.2 ± 11 | 50.3 ± 7.4
UACCAUUACAUGUAAACCAAA | 78.4 ± 14 | 56.1 ± 6.1 | 89.2 ± 8.7 | 34.4 ± 3.6
UACCCAAACAUGUAAACCAAA | 68.6 ± 3.3 | 80.9 ± 11 | 65 ± 4.9 | 29.2 ± 4.9
UACCCACACAUGUAAACCAAA | 53.6 ± 5.6 | 39.7 ± 3.2 | 53.1 ± 6 | 27 ± 4.8
UACCCAGACAUGUAAACCAAA | 52.9 ± 8.5 | 71.4 ± 8.4 | 51.7 ± 2.2 | 24.6 ± 1.7
UACCCAUACAUGUAAACCAAA | 70.4 ± 8.1 | 61.9 ± 9.6 | 33.8 ± 6.5 | 37.6 ± 8.4
UACCCCAACAUGUAAACCAAA | 43.8 ± 8.4 | 53.9 ± 2.5 | 35.2 ± 6.9 | 59.3 ± 2.6
UACCCCCACAUGUAAACCAAA | 5.98 ± 1.5 | 14.6 ± 1.1 | 19.3 ± 3.7 | 17.8 ± 3.2
UACCCCGACAUGUAAACCAAA | 45 ± 9 | 54.4 ± 4.2 | 68.9 ± 4.2 | 41.6 ± 7.4
UACCCCUACAUGUAAACCAAA | 20 ± 5.4 | 23 ± 1.3 | 25.2 ± 3.5 | 25.1 ± 3
UACCCGAACAUGUAAACCAAA | 79.2 ± 4.3 | 60.2 ± 6.4 | 73.7 ± 5.4 | 44.9 ± 5.3
UACCCGCACAUGUAAACCAAA | 27.7 ± 9.5 | 49.6 ± 5.5 | 17.8 ± 3.3 | 51 ± 16
UACCCGGACAUGUAAACCAAA | 73.3 ± 5.6 | 64.2 ± 6.6 | 80.4 ± 12 | 44.2 ± 14
UACCCGUACAUGUAAACCAAA | 54 ± 8.1 | 59.2 ± 5.3 | 73.7 ± 7.7 | 39.3 ± 6.2
UACCCUAACAUGUAAACCAAA | 91.6 ± 7.2 | 70 ± 13 | 86 ± 8.9 | 57 ± 0.81
UACCCUCACAUGUAAACCAAA | 59.7 ± 7.2 | 34.9 ± 1.3 | 48.9 ± 5.1 | 37.7 ± 5.7
UACCCUGACAUGUAAACCAAA | 82.3 ± 2.5 | 56.7 ± 3.6 | 71.9 ± 14 | 72.2 ± 9.6

Sequence | cell viability (3LL) [%] | cell viability (H460) [%] | cell viability (HeyA8) [%] | cell viability (M565) [%]
UACCCUUACAUGUAAACCAAA | 90.9 ± 3.5 | 66.2 ± 7.3 | 63.5 ± 4.7 | 79.4 ± 8
UACCGAAACAUGUAAACCAAA | 83.8 ± 5.8 | 72.1 ± 13 | 90.5 ± 2.9 | 71.3 ± 6.5
UACCGACACAUGUAAACCAAA | 66.4 ± 5.8 | 87.3 ± 5.6 | 68.7 ± 7.1 | 38.4 ± 7.6
UACCGAGACAUGUAAACCAAA | 96.5 ± 11 | 90.4 ± 22 | 102 ± 12 | 81.1 ± 15
UACCGAUACAUGUAAACCAAA | 67.4 ± 3.2 | 66 ± 15 | 81.6 ± 13 | 46.1 ± 5.5
UACCGCAACAUGUAAACCAAA | 96.9 ± 2.7 | 95.2 ± 17 | 98.3 ± 7.1 | 61.5 ± 5
UACCGCCACAUGUAAACCAAA | 24.3 ± 5.4 | 63.2 ± 4.2 | 12.8 ± 2.3 | 7.94 ± 1.8
UACCGCGACAUGUAAACCAAA | 80.5 ± 4 | 92 ± 16 | 98.5 ± 18 | 70.2 ± 14
UACCGCUACAUGUAAACCAAA | 74.1 ± 6.1 | 77.8 ± 23 | 76.1 ± 8.2 | 33.5 ± 6.8
UACCGGAACAUGUAAACCAAA | 73 ± 11 | 64.8 ± 12 | 73.6 ± 5.5 | 43.5 ± 6.4
UACCGGCACAUGUAAACCAAA | 57.4 ± 6.4 | 39.5 ± 2.8 | 19.2 ± 0.98 | 50.9 ± 4
UACCGGGACAUGUAAACCAAA | 92.8 ± 7.1 | 70.3 ± 9.1 | 73.4 ± 11 | 69.7 ± 22
UACCGGUACAUGUAAACCAAA | 66 ± 4.5 | 83 ± 13 | 68.9 ± 6.1 | 47 ± 6.8
UACCGUAACAUGUAAACCAAA | 85.9 ± 3.5 | 104 ± 15 | 83.1 ± 5.8 | 55.3 ± 5.5
UACCGUCACAUGUAAACCAAA | 25.6 ± 6.2 | 59.9 ± 2.5 | 62.5 ± 1.3 | 8.65 ± 2.4
UACCGUGACAUGUAAACCAAA | 82 ± 4.5 | 64.5 ± 12 | 85.4 ± 9.1 | 32.2 ± 7.6
UACCGUUACAUGUAAACCAAA | 82 ± 6.5 | 75 ± 11 | 77 ± 6.8 | 21.2 ± 2.9
UACCUAAACAUGUAAACCAAA | 82.5 ± 1.5 | 60.9 ± 6.2 | 84 ± 9.3 | 80.3 ± 15
UACCUACACAUGUAAACCAAA | 94.9 ± 5.6 | 53.5 ± 8 | 63.9 ± 3 | 33.6 ± 5.4
